# Data as given in the supplement of paper PMC3334620.
# Whole data set: some 33,000 sequences, median “E-score (-0.5 to 0.5)” near -0.043, cut for the highest 2% near 0.37. This is one part of the list.
# Molecular target: T1, Upc2 (UniProt Q12151)
# T1 sequence: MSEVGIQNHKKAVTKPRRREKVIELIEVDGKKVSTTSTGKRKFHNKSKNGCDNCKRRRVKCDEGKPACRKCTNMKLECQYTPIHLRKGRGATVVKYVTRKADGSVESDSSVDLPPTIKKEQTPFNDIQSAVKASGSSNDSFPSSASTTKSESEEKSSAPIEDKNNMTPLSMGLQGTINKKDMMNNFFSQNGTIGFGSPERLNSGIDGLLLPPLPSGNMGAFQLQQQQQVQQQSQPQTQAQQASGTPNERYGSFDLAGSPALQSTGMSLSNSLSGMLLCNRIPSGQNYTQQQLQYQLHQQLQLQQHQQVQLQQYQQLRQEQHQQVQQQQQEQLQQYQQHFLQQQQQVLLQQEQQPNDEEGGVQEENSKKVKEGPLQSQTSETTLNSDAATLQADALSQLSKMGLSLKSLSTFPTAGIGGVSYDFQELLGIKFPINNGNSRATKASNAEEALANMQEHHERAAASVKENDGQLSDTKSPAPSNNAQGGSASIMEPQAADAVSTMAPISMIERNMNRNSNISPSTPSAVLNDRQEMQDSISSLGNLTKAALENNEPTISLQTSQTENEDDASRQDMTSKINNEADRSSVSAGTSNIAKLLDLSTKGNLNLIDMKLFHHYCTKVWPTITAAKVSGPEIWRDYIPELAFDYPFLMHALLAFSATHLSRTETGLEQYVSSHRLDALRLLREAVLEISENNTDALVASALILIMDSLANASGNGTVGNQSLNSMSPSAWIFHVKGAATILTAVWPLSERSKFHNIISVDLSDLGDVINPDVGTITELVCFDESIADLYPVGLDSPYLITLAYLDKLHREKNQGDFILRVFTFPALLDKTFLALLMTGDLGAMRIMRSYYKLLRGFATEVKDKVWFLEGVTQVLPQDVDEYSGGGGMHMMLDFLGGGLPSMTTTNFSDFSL
# Experiment: PBM E-score (8-mer binding enrichment) (E-score (-0.5 to 0.5)); higher = stronger / more preferred TF binding; most listed sequences are background and not binding sites
# Details: protein concentration: 200 nM; construct: GST-full length
# Summary of the method: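 PURExpress in vitro transcription/translation supplied GST-tagged yeast transcription factors, either full-length or DNA-binding domain. Applied at about 100-200 nM to universal all-10-mer Agilent arrays double-stranded by primer extension, the bound protein was detected with fluorescent anti-GST. E-scores, modified Wilcoxon-Mann-Whitney statistics, were given by the Universal PBM Analysis Suite to ungapped eight-base words pooled with their reverse complements after masliner normalisation.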
row,Sequence,PBM E-score
1,GGTAACGA,0.346
2,ACGTATGA,0.243
3,ACGATTTA,0.28
4,GGAATCCA,-0.203
5,CGGGGCAC,-0.065
6,CCGGAATC,-0.285
7,CTACGGCC,-0.0664
8,CGTTCCCC,0.333
9,TGAATGCA,-0.0537
10,AATCGTTG,0.142
11,AGAGGGAA,-0.35
12,CCGCAACC,-0.202
13,AAGTCATG,-0.114
14,CACTGAGA,-0.0162
15,AAATGAGA,-0.0182
16,ACACATTC,0.0508
17,CGGCAGAG,-0.145
18,AGTAAACT,0.118
19,AAATAGGT,-0.0209
20,GCGGACGA,-0.0197
21,ACCTGAAG,-0.141
22,AGCGCGTA,0.33

row,Sequence,PBM E-score
1,TGCATACA,-0.0128
2,CGGTACTA,-0.116
3,GTAGTCTA,0.048
4,CTACTAAG,-0.0846
5,ATCCCGAA,-0.061
6,TAAATTGA,-0.0257
7,AATGTTCT,-0.0724
8,AGAGCATG,-0.17
9,AGATCCGA,0.164
10,ATTTCCGC,0.0187
11,CGAGAGCA,0.157
12,AATTTCCC,-0.0871
13,AGACCGGA,-0.0184
14,ATCCCCTA,-0.25
15,AACCGGTC,-0.0339
16,CTTGAAAA,0.0485
17,CAGGCTAA,-0.0977
18,CGAAAACA,0.106
19,GTTACCTA,-0.186
20,CGCAAATC,0.0443
21,AAGCCTGT,-0.282
22,CGACTGTC,-0.0612

row,Sequence,PBM E-score
1,CGCCGCAC,-0.0582
2,CTGCCACA,-0.212
3,ACGCTCAA,0.0452
4,CGCGCCCG,-0.102
5,AGCACAAG,-0.199
6,GGATGATA,-0.136
7,AACTCTAA,-0.0333
8,CTGGCCAG,-0.143
9,CTCTAAAC,0.193
10,GCGAGCAA,0.168
11,CATTAGCC,-0.158
12,AGCCGACC,-0.0565
13,CCACTGAA,-0.119
14,CGTTGAAA,0.144
15,ACGAGATG,0.38
16,GCGTAAAA,0.302
17,ATGCGATG,0.112
18,GCTCTCTA,-0.142
19,TCACCAAA,0.025
20,CTTTTAGC,0.0779
21,TATCCAGA,-0.0529
22,CCGGGCCG,0.0549

row,Sequence,PBM E-score
1,ACACATGA,-0.106
2,ATAGCGTG,-0.0966
3,ATTGATTC,0.012
4,TCAACTGA,-0.267
5,AAATGGTG,-0.00418
6,AGGATAGC,0.199
7,ACCGTCTG,-0.109
8,AACAGAAC,-0.0133
9,CACCTTAC,-0.0573
10,AGGCTCTG,-0.193
11,TAGAAGGA,-0.154
12,CGCCATCA,-0.224
13,GGGGTGTA,-0.104
14,CGGGTTAA,0.208
15,AGCACCTA,-0.14
16,CATGACGG,-0.229
17,ATAGGTGC,0.0421
18,TCGTAGAA,0.39
19,CATTACAG,0.0141
20,AGGCATAG,-0.279
